Data reported in publication PMC4336329 (PLoS ONE, 2015).
In all, about 310,000 compounds went through this assay and about 2,200 (0.71%) showed an effect of 50% or more. Effects have a minus sign here. Some of the results follow.

Target: human ether-à-go-go-related gene (hERG) potassium channel (human, UniProt Q12809)
Experiment: primary screen, population patch clamp on CHO cells stably expressing hERG

human ether-à-go-go-related gene (hERG) potassium channel, sequence (Q12809 whole entry, looked up): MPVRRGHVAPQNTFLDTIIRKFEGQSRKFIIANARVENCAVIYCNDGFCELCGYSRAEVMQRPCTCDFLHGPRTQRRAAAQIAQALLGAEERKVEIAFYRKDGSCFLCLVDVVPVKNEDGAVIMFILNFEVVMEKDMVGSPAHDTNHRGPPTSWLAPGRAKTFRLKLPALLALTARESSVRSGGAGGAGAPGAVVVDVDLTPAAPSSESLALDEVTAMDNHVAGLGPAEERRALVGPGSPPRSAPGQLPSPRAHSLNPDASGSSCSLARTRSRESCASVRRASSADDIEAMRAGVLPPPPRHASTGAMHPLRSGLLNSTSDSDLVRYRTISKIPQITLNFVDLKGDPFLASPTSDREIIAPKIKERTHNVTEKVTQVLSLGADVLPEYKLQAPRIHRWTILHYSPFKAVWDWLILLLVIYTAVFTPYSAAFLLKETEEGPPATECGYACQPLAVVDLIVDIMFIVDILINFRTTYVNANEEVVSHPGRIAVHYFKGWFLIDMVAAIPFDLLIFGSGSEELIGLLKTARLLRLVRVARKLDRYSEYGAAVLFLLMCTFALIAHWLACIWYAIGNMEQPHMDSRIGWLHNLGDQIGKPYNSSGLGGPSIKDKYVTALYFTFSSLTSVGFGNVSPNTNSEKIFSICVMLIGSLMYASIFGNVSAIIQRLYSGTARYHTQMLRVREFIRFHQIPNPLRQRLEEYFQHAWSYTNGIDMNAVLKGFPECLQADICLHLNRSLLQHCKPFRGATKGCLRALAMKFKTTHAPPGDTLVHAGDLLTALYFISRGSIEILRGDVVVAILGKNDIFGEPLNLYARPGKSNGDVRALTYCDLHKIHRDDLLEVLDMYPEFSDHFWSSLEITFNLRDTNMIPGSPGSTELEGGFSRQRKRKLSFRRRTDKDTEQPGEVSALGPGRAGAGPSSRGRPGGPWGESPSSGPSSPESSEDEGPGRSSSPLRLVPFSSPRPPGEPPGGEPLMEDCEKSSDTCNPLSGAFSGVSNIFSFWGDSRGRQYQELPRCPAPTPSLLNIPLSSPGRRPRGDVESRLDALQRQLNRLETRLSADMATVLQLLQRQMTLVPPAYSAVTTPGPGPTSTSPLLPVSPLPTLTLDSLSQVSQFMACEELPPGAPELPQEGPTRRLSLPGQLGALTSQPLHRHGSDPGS

SMILES	hERG current change (%, negative = inhibition) at 1uM [%]
CCC(=O)Nc1c(-c2cccs2)c(=O)c2ccccc2n1C	8.86
Fc1cccc2sc(Nc3nnc(-c4ccccc4)o3)nc12	10.5
CC(C)C[C@H](NC(=O)c1nc[nH]c1C(=O)NCc1ccccc1)C(=O)OCc1ccccc1	-3.93
Cc1ccccc1OCc1nnc(SCC(=O)Nc2ccc3c(c2)oc2ccccc23)n1C	10.6
CC(C)Cc1nc(N2CCC(C(N)=O)CC2)c2nnn(Cc3ccccc3)c2n1	24
COc1ccc(Nc2c3c(nc4ccccc24)CCC3)cc1.Cl	-14.5
Cc1c(C(=O)Nc2ccccn2)oc2ccc(Br)cc12	3.65
CCCc1cc(C(=O)N2CCCC(Nc3ccc(C)c(C)c3)C2)n(C)n1 (centres unmarked)	9.28
COc1ccc(N2C(=O)C3CCCN3C2c2ccc(C)cc2)cc1 (centres unmarked)	11.4
COc1ccc(OC)c(NC(=O)C2C3CCC(C3=C(C)C)C2C(=O)O)c1 (centres unmarked)	6.65
CC(=O)c1c[nH]c2ccc(C)cc2c1=O	-4.84
O=C(c1nn(Cc2ccccc2)c(=O)c2ccccc12)N1CCc2ccccc2C1	0.969
Cc1ccc(/C(O)=C/C(=O)C(=O)NNC(=O)C(O)(c2ccccc2)c2ccccc2)cc1	7.97
CC(CN1c2ccccc2Sc2ccccc21)N(C)C.Cl (centres unmarked)	-5.31
Cl.O=C(CNC1CCN(Cc2ccccc2)CC1)Nc1ccc(S(=O)(=O)N2CCCCC2)cc1	-14.6
Cc1cc(N2CCN(S(=O)(=O)c3ccc4ccccc4c3)CC2)n2ncnc2n1	-48.4
CNC(=O)C(NC(=O)Nc1ccc(C)cc1)C(C)(C)C (centres unmarked)	7.58
CCNC(=O)CN1C(=O)NC(Cc2ccccc2)(Cc2ccccc2)C1=O	3
Cc1ccc2c(c1)nc(-n1nc(C)cc1C)c1nnnn12	9.29

SMILES	hERG current change (%, negative = inhibition) at 1uM [%]
Cn1c(CNC(=O)c2ccc(Cl)cc2)nnc1SCC(=O)NC1CCCC1	8.43
COc1cccc(/C=N/NC(=O)c2ccc3nc[nH]c3c2)c1O	3.26
CCOC(=O)COc1ccc(Br)cc1/C=C\c1[nH]c(=O)[nH]c(=O)c1[N+](=O)[O-]	6.81
CCc1nnc(NC(=O)C(CC)CC)s1	-1.38
CCOC(=O)c1ccc(-n2c(CN3CCC(O)CC3)nc3ccc([N+](=O)[O-])cc3c2=O)cc1	13
CCCS(=O)(=O)N1CCCC(C(=O)Oc2ccccc2Cl)C1 (centres unmarked)	13.7
Cc1ccc(C2N=C(N)Nc3nc4ccccc4n32)cc1 (centres unmarked)	15.3
Cc1ccc(NC(=O)Nc2cnccn2)cc1Cl	9.04
CC1CC1c1ccc(/C=C(\C#N)C(=O)Nc2ccc(Cl)cc2Cl)o1 (centres unmarked)	-4.11
CCOc1ccccc1N(CC(=O)Nc1ccc2c(c1)OCCO2)S(C)(=O)=O	6.44
Cc1ccc(C(=O)OCC(=O)Nc2c(C)n(C)n(-c3ccccc3)c2=O)cc1[N+](=O)[O-]	10.5
CCCCN(C(=O)c1c(C)[nH]c(C(=O)OCC)c1C)c1ccccc1	1.54
O=C1CC(N2CCN(c3ccc(S(=O)(=O)N4CCCC4)cc3)CC2)C(=O)N1c1ccc(F)cc1 (centres unmarked)	3.64
COc1ccc(C2Nc3ccccc3C(=O)N2NS(C)(=O)=O)c(OC)c1 (centres unmarked)	29.7
O=C(CN1C(=O)c2cccc([N+](=O)[O-])c2C1=O)NCc1ccccc1	-8.98
O=C(Nc1ccc(S(=O)(=O)Nc2nccs2)cc1)c1cc(-c2ccncc2)nc2ccccc12	6.92
CSc1nn2c(C)c(C)c(C)nc2c1C#N	0.978
CCOC(=O)c1cnc(SC)nc1Nc1cccc2ccccc12	1.8
COc1ccc(CN(C)CC2CCCN(CCc3ccc(F)cc3)C2)cc1OC (centres unmarked)	-8.47

SMILES	hERG current change (%, negative = inhibition) at 1uM [%]
CCOC(=O)c1nc(Nc2ccccc2)c2ccccc2n1	-8.82
C=CCNC(=O)CN1c2cccc3cccc(c23)S1(=O)=O	14.7
COc1ccc(S(=O)(=O)N2CCN(Cc3cccc(OC)c3OC)CC2)cc1	9.88
CCN(CC(=O)NCc1cccs1)C(=O)CCCOc1ccc(C(C)(C)C)cc1	-0.644
CS(=O)(=O)Nc1ccccc1C(=O)NCc1ccccc1Cl	8.64
O=C(COC(=O)c1ccccc1[N+](=O)[O-])NNC(=O)c1cccs1	6.17
COc1ccc(N2C(=O)C3CCCCC3C2=O)cc1NC(=O)c1ccccc1 (centres unmarked)	14.3
CC(NC(=O)CCNS(=O)(=O)c1ccccc1)c1ccccc1 (centres unmarked)	7
CCOC(=O)c1c(NC(=O)CSc2nc3c(c(=O)n(C)c(=O)n3C)n2CC)sc(C)c1C	9.17
C=CCN1C(=O)c2ccc(C(=O)NCCc3ccc(F)cc3)cc2C1=O	13.1
O[C@H]1[C@H](O)[C@@H](O)CN2CC[C@H](O)[C@H]12	15.9
CC(=O)n1cc(/C=N/NC(=O)c2ccc(Cl)cc2)c2ccccc21	13.4
COc1ccc(OCc2cc(C(=O)N3CCN(CC4CC4)CC3)no2)c(Cl)c1	15.3
COc1ccc(NC(=O)COC(=O)C2CC2)cc1S(=O)(=O)N1CCCCC1	-5.13
CC(C)[C@H](NC(=O)Nc1ccc2c(c1)OCCO2)C(=O)O	8.52
Cc1ccc(CN(C)C(=O)c2cccc(S(=O)(=O)N3CCc4ccccc4C3)c2)o1	7.64
CCOC(=O)C1=C(C)Nc2ncnn2C1c1cccs1 (centres unmarked)	12.9
N#C/C(=C\c1c(N2CCCCCC2)nc2ccccn2c1=O)C(=O)NC1CCS(=O)(=O)C1 (centres unmarked)	-2.42
